Experimental data: PubChem BioAssay AID686978 (National Center for Advancing Translational Sciences (NCATS), 2013)
Where “and” joins values, the source holds several entries; their conditions need not be identical. Equal values may be shown once. Out of some 420,000 compounds screened, about 64,000 (15%) were called active. Inconclusive means that the source gave no clear call. Such entries were picked first, then a sample of the others. Calls follow the shape of the dose curve; as a rule, active = well fitted inhibition curve with a large enough effect; inconclusive = small, poorly fitted or top-dose-only effect; inactive = flat fitted curve, though single readings scatter. Potencies of inconclusive entries are doubtful fits and often do not repeat.

assay: qHTS for Inhibitors of human tyrosyl-DNA phosphodiesterase 1 (TDP1): qHTS in cells in absence of CPT; conditions: DT40 Tdp1-/- hTDP1 cells, no CPT, ATP luminescence, 48 h; activity change, negative = growth inhibition: at 46.2 µM (top of the series) unless noted; also: nearly all actives have a fitted effect of over 55% in size
Summary of the method: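 A cellular qHTS used chicken DT40 cells lacking endogenous Tdp1 but carrying stably transfected human TDP1. Compounds were applied without camptothecin, and cell growth kinetics were judged by ATP-dependent luminescence after ≥48 hr.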
% is scaled to controls: 0 for no effect and ±100 for the full control effect; potency is read from the fitted curve at half-maximal effect; tags tell the direction and shape of the fitted curve.

SMILES	Potency	activity change, negative = growth inhibition
CCOc1ccc(N2C(=O)c3cccnc3C2Nc2ccc(C)c(C)c2)cc1 (centres undefined)	inconclusive: 0.092 µM [inhibitor, full curve, poor fit]	
O=C(COc1ccc(Cl)cc1)Nc1ccccc1C(=O)NCc1ccco1	inconclusive: 18.4 µM [inhibitor, single point]	
Cc1ccc(Cl)cc1NC(=O)/C(C#N)=C/c1c(C)n(Cc2ccccc2)c2ccccc12	inconclusive: 8.2 µM [inhibitor, partial curve]	
CCSc1nc(COC(=O)NC)c(COC(=O)NC)n1C	active: 5.17 µM	
Cc1ccc(C(=O)N/C(=C\c2ccc(-c3ccc([N+](=O)[O-])cc3)o2)C(=O)NC2CCS(=O)(=O)C2)cc1 (centres undefined)	inconclusive: 29.1 µM [inhibitor, single point]	
CCCCCC(=O)N1C[C@@H](n2cc(-c3ccc(F)cc3)nn2)[C@H](O)C[C@@H]1c1ccc(Cl)cc1	active: 11.6 µM	
Cc1ccc(NC(=S)NNC(=O)c2c([N+](=O)[O-])c(C)nn2C)cc1		inactive: -2.86%
CCn1nc(C(=O)OCC(=O)Nc2nc(-c3ccc(OC)cc3)cs2)c2ccccc2c1=O	inconclusive: 20.6 µM [inhibitor, single point]	
S=c1[nH]nc(Cc2noc3ccccc23)n1-c1ccccc1	inconclusive: 29.1 µM [inhibitor, single point]	
O=C(CCN1CCOCC1)NNC(=O)c1ccc(Cl)c([N+](=O)[O-])c1		inactive: -2.36%
CN(C(=O)c1cccs1)C1(C)CCS(=O)(=O)C1 (centres undefined)		inactive: 25.6%
CC1(c2ccccc2)CC(C)(C)n2c(O)c(C3=NC(=S)NC3=O)c3cccc1c32 (centres undefined)	active: 23.1 µM	
COc1ccc(-n2cc(CNCCCn3ccnc3)c(-c3ccccc3Cl)n2)cc1	inconclusive: 18.4 µM [inhibitor, single point]	
C[C@@H](C(=O)NCCc1ccccc1)N1C(=O)N2CCc3c([nH]c4ccccc34)[C@@]2(C)C1=O	inconclusive: 29.1 µM [inhibitor, single point]	
COc1ccc([C@H]2CN(CCc3ccccc3)C(=O)[C@@H]2CC(=O)Nc2ccccc2)cc1	inconclusive: 20.6 µM [inhibitor, single point]	
COC(=O)c1ccccc1NC(=O)CN(c1ccccc1)S(=O)(=O)N(C)C		inactive: -10.7%
COc1ccccc1-n1cnc2c(c1=O)c1nc3ccccc3nc1n2CCc1ccccc1	active: 16.4 µM	
CCCCN(C)CCNC(=O)Cn1ncc2c3ccccc3n(CCC)c2c1=O	inconclusive: 29.1 µM [inhibitor, single point]	
Cc1cc(Oc2ccccc2F)nc(NCc2ccccc2)n1	inconclusive: 29.1 µM [inhibitor, single point]	
Cc1ccc(NS(=O)(=O)c2cccc(C(=O)N3CCCCCCC3)c2)cc1	inconclusive: 18.4 µM [inhibitor, single point]	
COc1ccc(-c2ccc(=O)n(Cc3c(F)cccc3Cl)n2)cc1	active: 7.31 µM	
CC(C)Oc1ccc(CCc2n[nH]c(=S)n2Cc2ccccc2)cc1	active: 20.6 µM	
CC(NS(=O)(=O)c1cc2c3c(c1)CCC(=O)N3CCC2)c1ccccc1 (centres undefined)	inconclusive: 29.1 µM [inhibitor, single point]	

SMILES	Potency	activity change, negative = growth inhibition
Cc1cccc(-c2noc(CN(C(=O)c3ccc(C)c(C)c3)C(C)C)n2)c1	active: 3.66 µM	
CC(=O)c1cccc(NC(=O)CCC(=O)c2ccc(F)cc2)c1	inconclusive: 3.26 µM [inhibitor, full curve]	
Cc1ccc(S(=O)(=O)N2CCCC(C(=O)NCCCN3CCCCC3C)C2)cc1 (centres undefined)		inactive: -8.82%
CCN1C[C@@H]2[C@@H]3C(=O)N(Cc4ccccc4)C(=O)[C@@H]3[C@](Cc3ccccc3)(C(=O)OC)N2C1=NC		inactive: -12.2%
Cc1csc2nc(-c3cccc(NC(=O)c4cccc(F)c4)c3)cn12	active: 18.4 µM	
CC(=O)Nc1ccc2nc(NC(=O)CS(=O)(=O)c3ccccc3)sc2c1		inactive: -18.3%
C/C(=N\NC(=O)c1cccc(S(=O)(=O)N2CCCC2)c1)c1ccc(OCC(=O)N(C)C)cc1		inactive: -15.3%
Cc1cc(=O)[nH]c(N2CCCCC2)n1		inactive: -2.42%
Cc1ccc(-c2ccc(S(=O)(=O)N3CCN(C)CC3)cc2)cc1		inactive: -5.44%
COc1ccc(NC(=O)CSc2ccc(-c3sc(C)nc3C)nn2)cc1	inconclusive: 8.2 µM [inhibitor, partial curve]	
COCCn1c(=NC(=O)CCS(=O)(=O)c2ccccc2)sc2c(OC)ccc(OC)c21	inconclusive: 25.9 µM [inhibitor, single point]	
CCC(CO)Nc1nc(CN2CCCCC2)nc2scc(-c3ccccc3)c12 (centres undefined)	inconclusive: 23.1 µM [inhibitor, single point]	
COc1ccc(NC(=O)N(C)C[C@H]2Oc3ccc(NC(=O)CCN4CCOCC4)cc3C(=O)N([C@@H](C)CO)C[C@H]2C)cc1		inactive: -6.82%
CC(Oc1ccc(-c2ccccc2)c(F)c1)c1ccn(S(=O)(=O)c2ccc(Br)cc2)n1 (centres undefined)	inconclusive: 18.4 µM [inhibitor, single point]	
NC(=O)CC(NC(=O)c1cccc(Br)c1)c1ccc(NCC2CC2)c([N+](=O)[O-])c1 (centres undefined)	inconclusive: 7.31 µM [inhibitor, partial curve]	
CCOc1ccc(CCNC(=O)C2=C(C)C(=O)OC23CCC(C)CC3)cc1OCC (centres undefined)	inconclusive: 29.1 µM [inhibitor, single point] and inconclusive: 10.3 µM [inhibitor, partial curve]	
CC(NC(=O)C12CC3CC(CC(C3)C1)C2)C(=O)NN=Cc1ccc([N+](=O)[O-])o1 (centres undefined)	inconclusive: 18.4 µM [inhibitor, single point]	
CC(C)C1=C2OC(N)=C(C#N)C(C#N)=C2C(C)CC1 (centres undefined)	inconclusive: 16.4 µM [inhibitor, single point]	
C=CCCC(=O)N1C[C@H]2CON(C)[C@H]2C[C@H]1c1ccc(Br)cc1		inactive: -0.405%
CC1CCC(NC(=O)c2ccc(COc3ccccc3)o2)CC1 (centres undefined)	inconclusive: 14.6 µM [inhibitor, partial curve, poor fit]	
COc1ccc(-c2nc3ccccc3nc2-c2ccccc2)cc1	inconclusive: 29.1 µM [inhibitor, single point]	
COc1c(C)cc(C(=O)C2CCCN(C(=O)c3cccc(F)c3)C2)cc1C (centres undefined)	inconclusive: 29.1 µM [inhibitor, single point]	
CCC(=O)Oc1c(C(=O)CC)cc2c(C)cc(=O)oc2c1C	inconclusive: 29.1 µM [inhibitor, single point]	

SMILES	Potency	activity change, negative = growth inhibition
CN(Cc1ccco1)S(=O)(=O)c1csc(C(N)=O)c1		inactive: -2.26%
Cc1cccc(COC[C@H](Cc2ccccc2)N2CCN(C(=O)c3ccc(Cl)c(Cl)c3)CCC2=O)c1	inconclusive: 29.1 µM [inhibitor, single point]	
Cc1ccc(-n2c(SCC(=O)N3CC(=O)Nc4ccccc43)nc3ccccc3c2=O)cc1	inconclusive: 18.4 µM [inhibitor, single point]	
CCOc1cc(C#N)c(NC(=O)c2ccc(OC)c(S(=O)(=O)N3CCCC3)c2)cc1OCC	inconclusive: 25.9 µM [inhibitor, single point]	
CN(c1ccccc1)S(=O)(=O)c1ccc(NC(=O)c2ccccc2)cc1	inconclusive: 29.1 µM [inhibitor, single point]	
CCN(CC)c1ccc(NC(=O)CSc2nc3ccccc3c(=O)n2-c2cc(S(=O)(=O)N(C)C)ccc2C)cc1		inconclusive: -33.7% [inhibitor]
CC(=O)C1CCC2C3CC(C)C4=CC(=O)CCC4(C)C3C(=O)CC12C (centres undefined)	inconclusive: 23.1 µM [inhibitor, single point]	
Cc1cccc(COC(=O)C(Cc2ccccc2)NC(N)=O)c1 (centres undefined)	inconclusive: 10.3 µM [inhibitor, partial curve]	
O=S(=O)(c1ccccc1)c1nc(-c2ccc(F)cc2)oc1N1CCOCC1	inconclusive: 29.1 µM [inhibitor, single point]	inconclusive: -31% [inhibitor]
COc1ccc(C)cc1S(=O)(=O)N(CC(=O)Nc1ccc2c(c1)OCCO2)Cc1ccccc1	inconclusive: 22.4 µM [inhibitor, single point]	
O=C(COC(=O)c1cc(S(=O)(=O)N2CCCCC2)ccc1Cl)NC1CCS(=O)(=O)C1 (centres undefined)		inactive: 1.08%
NCCNCCN		inactive: 3.13%
O=C(NC1c2ccccc2-c2ccccc21)c1ccccc1		inactive: -13.4%
CCCOc1ccc(OC(=O)c2sc3ncn(Cc4cccc(F)c4)c(=O)c3c2C)cc1	inconclusive: 13 µM [inhibitor, partial curve]	
O=C(Cc1cccs1)N(Cc1ccco1)C1(C(=O)NC2CCCCC2)CCCCC1	active: 18.4 µM	
O=[N+]([O-])c1cccc(S(=O)(=O)NCc2ccncc2)c1	active: 2.31 µM	
O=C(NCC1Cc2cccc(-c3cccnc3)c2O1)c1ccc2cc[nH]c2c1 (centres undefined)	active: 25.9 µM	
CCCN(CC(=O)Nc1ccccc1OC)C(=O)CCC(=O)c1ccc(F)cc1	inconclusive: 29.1 µM [inhibitor, single point]	
CCCCCCN1C2=NCCCN2c2ccccc21	active: 16.4 µM	
CCc1ccc(N2CC(C(=O)N3CCN(S(=O)(=O)c4cccc(F)c4)CC3)CC2=O)cc1 (centres undefined)	inconclusive: 25.9 µM [inhibitor, single point]	
O=C1CC(N2CCN(S(=O)(=O)c3ccc([N+](=O)[O-])cc3)CC2)C(=O)N1c1ccccc1F (centres undefined)		inactive: 12.2%
CC(C)OC(=O)c1nn2c(C(F)(F)F)cc(-c3ccc(Br)o3)nc2c1Br	inconclusive: 16.4 µM [inhibitor, partial curve]	
